Experimental data reported in the antibiotic and cytotoxicity screens of Wong et al. (2023).
The other results are listed elsewhere or left out.

system: HSkMC (human skeletal muscle cells); test: cytotoxicity call (relative viability < 0.9); settings: 10 µM

Structure (SMILES) | cytotoxicity call
C[C@H](CO)N1C[C@H](C)[C@@H](CN(C)Cc2ccc3c(c2)OCO3)Oc2ncc(Br)cc2C1=O | inactive
C[C@H](CO)N1C[C@H](C)[C@@H](CN(C)S(=O)(=O)c2ccc(F)cc2)Oc2ccc(NC(=O)C3CC3)cc2CC1=O | inactive
O=C(O)C1(c2ccccc2)CCCC1 | inactive
C[C@@H]1CN([C@H](C)CO)C(=O)c2cc(NC(=O)CCCN(C)C)ccc2O[C@@H]1CN(C)S(=O)(=O)c1cn(C)cn1 | inactive
CN(CC(=O)O)C(=N)N | inactive
C[C@@H]1CN([C@H](C)CO)C(=O)c2cc(NC(=O)C3CCCCC3)ccc2O[C@@H](C)CCCCO[C@H]1CN(C)Cc1ccc(C(=O)O)cc1 | inactive
C[C@H]1CN([C@@H](C)CO)C(=O)c2c(c3ccccc3n2C)-c2ccccc2CO[C@@H]1CN(C)C(=O)Nc1ccc(F)cc1 | inactive
C[C@@H]1CCCCO[C@@H](CN(C)S(C)(=O)=O)[C@@H](C)CN([C@H](C)CO)C(=O)c2cc(NS(=O)(=O)c3cn(C)cn3)ccc2O1 | inactive
N[C@@H](CC(=O)N1CCn2c(nnc2C(F)(F)F)C1)Cc1[nH]nc2c(F)c(F)ccc12 | inactive
CCN(CC)CCCC(C)Nc1ccnc2cc(Cl)ccc12.O=P(O)(O)O.O=P(O)(O)O (stereo not given) | inactive
C[C@@H]1CCCCO[C@H](CN(C)CC2CCCCC2)[C@H](C)CN([C@H](C)CO)C(=O)c2cc(NC(=O)Nc3ccc4c(c3)OCO4)ccc2O1 | inactive
CCC(=O)N[C@H]1CC[C@H](CC(=O)OC)O[C@H]1CO | inactive
C[C@H](CO)N1C[C@H](C)[C@@H](CN(C)C(=O)Nc2ccc3c(c2)OCCO3)OCc2cnnn2CCCC1=O | inactive
COc1ccc(NC(=O)Nc2cccc3c2O[C@@H](CN(C)S(=O)(=O)c2cn(C)cn2)[C@H](C)CN([C@@H](C)CO)C3=O)cc1 | inactive
C[C@@H]1CN([C@H](C)CO)S(=O)(=O)c2ccc(-c3ccncc3)cc2O[C@H]1CN(C)Cc1ccc(Oc2ccccc2)cc1 | inactive
CO[C@H]1CN(C)C(=O)c2ccc(NS(=O)(=O)c3ccccc3C)cc2OC[C@@H](C)N(S(C)(=O)=O)C[C@@H]1C | inactive
Cc1ccc(S(=O)(=O)Nc2ccc3c(c2)C(=O)N([C@@H](C)CO)C[C@@H](C)[C@@H](CN(C)S(=O)(=O)c2cn(C)cn2)O3)cc1 | inactive
Cc1ccc(S(=O)(=O)N2C[C@@H](O)COC[C@H]3O[C@H](CC(=O)NCCN4CCCCC4)CC[C@@H]32)cc1 | inactive
O=C1CNC(=O)CN1 | inactive
Cc1ccc(S(=O)(=O)N(C)C[C@@H]2Oc3ccc(NC(=O)Nc4cccc5ccccc45)cc3C(=O)N([C@@H](C)CO)C[C@H]2C)cc1 | inactive
C[C@@H]1CN([C@@H](C)CO)C(=O)c2cc(NC(=O)Nc3ccc(C(F)(F)F)cc3)ccc2O[C@H]1CN(C)CC1CCCCC1 | active
CC(C)NC(=O)N[C@H]1C=C[C@H](CC(=O)NCCCN(C)C)O[C@H]1CO | inactive
C[C@@H]1CN([C@H](C)CO)C(=O)c2cccc(NC(=O)C3CC3)c2O[C@@H]1CN(C)S(=O)(=O)c1ccccc1 | inactive
O=C1CN(N=Cc2ccc([N+](=O)[O-])o2)C(=O)N1 | inactive
COC(=O)[C@H](Cc1c[nH]c2ccccc12)NC(=O)[C@H](CCCCCC(=O)[C@@H](C)O)NC(=O)OC(C)(C)C | inactive
Cc1ccc(S(=O)(=O)N(C)C[C@H]2OCCCC[C@@H](C)Oc3ccc(NC(=O)CCC(F)(F)F)cc3C(=O)N([C@@H](C)CO)C[C@@H]2C)cc1 | inactive
O=C(C[C@H]1C[C@H]2c3cc(NC(=O)C4CCOCC4)ccc3O[C@H]2[C@@H](CO)O1)NCCN1CCCCC1 | inactive
OCC(O)C(O)C(O)C(O)C(O)CO (stereo not given) | inactive
NCCCC[C@@H]1NC(=O)[C@@H](Cc2c[nH]c3ccccc23)NC(=O)[C@H](c2ccccc2)NC(=O)[C@@H]2C[C@@H](OC(=O)NCCN)CN2C(=O)[C@H](Cc2ccccc2)NC(=O)[C@H](Cc2ccc(OCc3ccccc3)cc2)NC1=O | inactive
C[C@@H](O)C#Cc1ccc2c(c1)O[C@@H](CN(C)C(=O)C1CCCCC1)[C@@H](C)CN([C@@H](C)CO)S2(=O)=O | inactive

system: HepG2; test: cytotoxicity call (relative viability < 0.9); settings: 10 µM

Structure (SMILES) | cytotoxicity call
C[C@@H]1CCCCO[C@H](CN(C)S(=O)(=O)c2cn(C)cn2)[C@H](C)CN([C@@H](C)CO)C(=O)c2cc(NS(=O)(=O)c3ccccc3)ccc2O1 | inactive
C[C@H]1CCCCO[C@H](CN(C)C(=O)Nc2ccccc2)[C@@H](C)CN([C@@H](C)CO)C(=O)c2cc(NC(=O)Nc3cccc4ccccc34)ccc2O1 | inactive
COc1ccc(NC(=O)N2C[C@@H](O)COC[C@H]3O[C@@H](CC(=O)NC4Cc5ccccc5C4)CC[C@@H]32)cc1 | inactive
COc1ccccc1CNC(=O)C[C@H]1C[C@@H]2c3cc(NC(=O)c4cccnc4)ccc3O[C@@H]2[C@H](CO)O1 | inactive
C[C@@H]1CCCCO[C@@H](CN(C)C(=O)Nc2ccccc2)[C@H](C)CN([C@@H](C)CO)C(=O)c2cc(NC(=O)CCC(F)(F)F)ccc2O1 | inactive
Cc1noc(C)c1NC(=O)Nc1ccc2c(c1)C(=O)N([C@H](C)CO)C[C@H](C)[C@@H](CN(C)C(=O)Nc1ccccc1)OCCCC[C@H](C)O2 | inactive
C[C@@H]1CN([C@@H](C)CO)C(=O)c2cc(NS(=O)(=O)c3cn(C)cn3)ccc2O[C@@H](C)CCCCO[C@H]1CN(C)C(=O)CCCN(C)C | inactive
CO[C@@H]1CN(C)C(=O)c2cc(NC(=O)c3ccc(Oc4ccccc4)cc3)ccc2OC[C@@H](C)N(C(C)=O)C[C@H]1C | inactive
C[C@@H]1CN([C@@H](C)CO)C(=O)Cc2cc(NS(=O)(=O)c3ccccc3)ccc2O[C@@H]1CN(C)S(=O)(=O)c1ccc(F)cc1 | inactive
CN(C)CC(=O)N1[C@@H](CO)[C@H](c2ccc(C3=CCCC3)cc2)C12CN(S(=O)(=O)Cc1ccccc1)C2 | inactive
C[C@H](CO)N1C[C@H](C)[C@@H](CN(C)Cc2ccc3c(c2)OCO3)Oc2ncc(Br)cc2C1=O | inactive
C[C@H](CO)N1C[C@H](C)[C@@H](CN(C)S(=O)(=O)c2ccc(F)cc2)Oc2ccc(NC(=O)C3CC3)cc2CC1=O | inactive
O=C(O)C1(c2ccccc2)CCCC1 | inactive
C[C@@H]1CN([C@H](C)CO)C(=O)c2cc(NC(=O)CCCN(C)C)ccc2O[C@@H]1CN(C)S(=O)(=O)c1cn(C)cn1 | inactive
CN(CC(=O)O)C(=N)N | inactive
C[C@@H]1CN([C@H](C)CO)C(=O)c2cc(NC(=O)C3CCCCC3)ccc2O[C@@H](C)CCCCO[C@H]1CN(C)Cc1ccc(C(=O)O)cc1 | inactive
C[C@H]1CN([C@@H](C)CO)C(=O)c2c(c3ccccc3n2C)-c2ccccc2CO[C@@H]1CN(C)C(=O)Nc1ccc(F)cc1 | inactive
C[C@@H]1CCCCO[C@@H](CN(C)S(C)(=O)=O)[C@@H](C)CN([C@H](C)CO)C(=O)c2cc(NS(=O)(=O)c3cn(C)cn3)ccc2O1 | inactive
N[C@@H](CC(=O)N1CCn2c(nnc2C(F)(F)F)C1)Cc1[nH]nc2c(F)c(F)ccc12 | inactive
CCN(CC)CCCC(C)Nc1ccnc2cc(Cl)ccc12.O=P(O)(O)O.O=P(O)(O)O (stereo not given) | active

Structure (SMILES) | cytotoxicity call
C[C@@H]1CCCCO[C@H](CN(C)CC2CCCCC2)[C@H](C)CN([C@H](C)CO)C(=O)c2cc(NC(=O)Nc3ccc4c(c3)OCO4)ccc2O1 | inactive
CCC(=O)N[C@H]1CC[C@H](CC(=O)OC)O[C@H]1CO | inactive
C[C@H](CO)N1C[C@H](C)[C@@H](CN(C)C(=O)Nc2ccc3c(c2)OCCO3)OCc2cnnn2CCCC1=O | inactive
COc1ccc(NC(=O)Nc2cccc3c2O[C@@H](CN(C)S(=O)(=O)c2cn(C)cn2)[C@H](C)CN([C@@H](C)CO)C3=O)cc1 | inactive
C[C@@H]1CN([C@H](C)CO)S(=O)(=O)c2ccc(-c3ccncc3)cc2O[C@H]1CN(C)Cc1ccc(Oc2ccccc2)cc1 | inactive
CO[C@H]1CN(C)C(=O)c2ccc(NS(=O)(=O)c3ccccc3C)cc2OC[C@@H](C)N(S(C)(=O)=O)C[C@@H]1C | inactive
Cc1ccc(S(=O)(=O)Nc2ccc3c(c2)C(=O)N([C@@H](C)CO)C[C@@H](C)[C@@H](CN(C)S(=O)(=O)c2cn(C)cn2)O3)cc1 | inactive
Cc1ccc(S(=O)(=O)N2C[C@@H](O)COC[C@H]3O[C@H](CC(=O)NCCN4CCCCC4)CC[C@@H]32)cc1 | inactive
O=C1CNC(=O)CN1 | inactive
Cc1ccc(S(=O)(=O)N(C)C[C@@H]2Oc3ccc(NC(=O)Nc4cccc5ccccc45)cc3C(=O)N([C@@H](C)CO)C[C@H]2C)cc1 | inactive
C[C@@H]1CN([C@@H](C)CO)C(=O)c2cc(NC(=O)Nc3ccc(C(F)(F)F)cc3)ccc2O[C@H]1CN(C)CC1CCCCC1 | active
CC(C)NC(=O)N[C@H]1C=C[C@H](CC(=O)NCCCN(C)C)O[C@H]1CO | inactive
C[C@@H]1CN([C@H](C)CO)C(=O)c2cccc(NC(=O)C3CC3)c2O[C@@H]1CN(C)S(=O)(=O)c1ccccc1 | inactive
O=C1CN(N=Cc2ccc([N+](=O)[O-])o2)C(=O)N1 | active
COC(=O)[C@H](Cc1c[nH]c2ccccc12)NC(=O)[C@H](CCCCCC(=O)[C@@H](C)O)NC(=O)OC(C)(C)C | inactive
Cc1ccc(S(=O)(=O)N(C)C[C@H]2OCCCC[C@@H](C)Oc3ccc(NC(=O)CCC(F)(F)F)cc3C(=O)N([C@@H](C)CO)C[C@@H]2C)cc1 | inactive
O=C(C[C@H]1C[C@H]2c3cc(NC(=O)C4CCOCC4)ccc3O[C@H]2[C@@H](CO)O1)NCCN1CCCCC1 | inactive
OCC(O)C(O)C(O)C(O)C(O)CO (stereo not given) | inactive
NCCCC[C@@H]1NC(=O)[C@@H](Cc2c[nH]c3ccccc23)NC(=O)[C@H](c2ccccc2)NC(=O)[C@@H]2C[C@@H](OC(=O)NCCN)CN2C(=O)[C@H](Cc2ccccc2)NC(=O)[C@H](Cc2ccc(OCc3ccccc3)cc2)NC1=O | inactive
C[C@@H](O)C#Cc1ccc2c(c1)O[C@@H](CN(C)C(=O)C1CCCCC1)[C@@H](C)CN([C@@H](C)CO)S2(=O)=O | inactive
